{
  "source": "paper PMC12136788",
  "binders": {"B1": {"name": "chr2:120222042:120222143:-|CDS|ENSG00000226479|msi1|FALSE|bound_elsewhere (ssRNA)", "RNA": "GGGAGUUCUACAGUCCGACGAUCGAAAUUUUCCCAUUUUUAAGAGAAUAUGGGAACAUUUCAUAUGAUCUCCAUCACGAAGAUAGUGAAGAUGCUGAAGAAACAUCAGUUCCAGAAGCUCCGAAAAUUGCUCCAAUAUUUGGACAACAGAGGAUUGAGCAUCA"}, "B2": {"name": "chr20:4853394:4853498:-|3pUTR|ENSG00000089057|unk|FALSE|unique (ssRNA)", "RNA": "GGGAGUUCUACAGUCCGACGAUCUAUGACCAUGAGCUAAGUUGUUAUUUCUUUCAUUCAUAUCCCUGCUGAAAUAUUGGUACUAGCAACUUAAAGUUGGCAAGUCUCAUCUUCAGUAAUACGGAUGCCAUGGGAGUGGCCAGGCAACAGAGGAUUGAGCAUCA"}, "B3": {"name": "chr1:71070866:71070979:-|CDS|ENSG00000132485|unk|FALSE|bound_elsewhere (ssRNA)", "RNA": "GGGAGUUCUACAGUCCGACGAUCGAGGAUGAAGAUGACGCUGAUCUCUCAAAAUAUAAUCUUGAUGCCAGUGAAGAAGAAGAUAGUAAUAAAAAGAAAUCUAAUAGACGAAGUCGCUCAAAGUCUCGAUCUUCACAUUCACGACAACAGAGGAUUGAGCAUCA"}, "B4": {"name": "chr6:151351738:151351839:+|CDS|ENSG00000131016|msi1|FALSE|unique (ssRNA)", "RNA": "GGGAGUUCUACAGUCCGACGAUCGGUGGUGGGGCAGACCACCCCAGAAAGCUUUGAAAAAGCUCCUCAAGUCACAGAGAGCAUAGAGUCCAGUGAGCUUGUAACCACUUGUCAAGCCGAAACCUUAGCUGGGGUAAAAUCACACAACAGAGGAUUGAGCAUCA"}, "B5": {"name": "chr2:48720039:48721685:-|three_prime_utr|ENSG00000138039|control|control|control (ssRNA)", "RNA": "GGGAGUUCUACAGUCCGACGAUCGACUCUCUUUUAUAUCACUGGAUUCUAAAAAUUGGUAUCCUUGGUGCACUGCCUUUGUAUAGUACUUUUACUUUGUGUAGAUGUAAUUUUACAUGUAUAAUUGUCAUGUUACAAAGCUGUCAACAGAGGAUUGAGCAUCA"}, "B6": {"name": "ENSG00000173848:stop:overlap|stop_codon|ENSG00000173848|stop_codon|NA|stop_codon (ssRNA)", "RNA": "GGGAGUUCUACAGUCCGACGAUCGCAUCCGAAGAGCGAGGGACAAAGCCCUUUCUGGUGGCAAACGGAAAGAGACUUUGGUGUAGAGAAGGCUCUGUGUGUUAACUGAUGGGAGAGACUGUUUGUUUAUAAAUGUGUACAGUUCAACAGAGGAUUGAGCAUCA"}, "B7": {"name": "ENSG00000107863:be:win_2801|CDS|ENSG00000107863|bound_else_gene|NA|bound_elsewhere_windowed (ssRNA)", "RNA": "GGGAGUUCUACAGUCCGACGAUCAGGAAGGGUGGCUUCAUUUCCGACCCCUUGUCACCGAUAAGGGCAAGCGAGUUGGUGGAAGUAUUCGGCCAUGGAAACAGAUGUAUGUUGUCCUUCGGGGUCAUUCACUUUACCUGUACACAACAGAGGAUUGAGCAUCA"}, "B8": {"name": "chr10:73916565:73916770:+|3pUTR|ENSG00000122861|msi1|total|mutant (ssRNA)", "RNA": "GGGAGUUCUACAGUCCGACGAUCCUGGUUGUCAUUUUUGCAGCCGAGUCAUCUCCAUCAGCUGUAAGAAGAGACUGGGAAGACCGGCUCUGCACAGAUGGAUUUGCCUGUGCCACCCACCAGGGCGAACGACAACCGCUUUACCAACAGAGGAUUGAGCAUCA"}, "B9": {"name": "chr14:52327222:52327364:+|CDS|ENSG00000125384|unk|total|mutant (ssRNA)", "RNA": "GGGAGUUCUACAGUCCGACGAUCAUUUUUGCAUAUAUGAAUGAAACCUCUUCCCGAAAGGAAAAAUGGGACCUCCAAGCUCUCCGGUUUUUAUCAAUUAAUUCAAUAAUUGACCCUUGGGUCUUUGCCAUCCUCCGGCCUCCUCAACAGAGGAUUGAGCAUCA"}, "B10": {"name": "chr12:30629720:30629821:-|3pUTR|ENSG00000133704|msi1|FALSE|bound_elsewhere (ssRNA)", "RNA": "GGGAGUUCUACAGUCCGACGAUCCUUCUUGCUUUCUCACCUAUUUGAAUUUUCUCCUACCUAAUUUGUUUGUGUCUUUAUUAUAGCUCAGUUUGACUUCUCAAACUUUUCAAGGGUUGGGGCAGCUGCACUUUUAGGUUGCCUCAACAGAGGAUUGAGCAUCA"}, "B11": {"name": "chr10:98383567:98383797:-|three_prime_utr|ENSG00000119943|control|control|control (ssRNA)", "RNA": "GGGAGUUCUACAGUCCGACGAUCCCACCCCUGAAUUCCAAGUGCUCCAUUGGAUCAGCUUCCCAGGAAGUUCAGCUUCGGGUUAGUACAUAAGGCCACCACAAUGCUCAAGAAAUUAUUUUAGAAAAAACGUACGAGUUACAUCAACAGAGGAUUGAGCAUCA"}, "B12": {"name": "chr10:52765379:52768136:-|three_prime_utr|ENSG00000165471|control|control|control (ssRNA)", "RNA": "GGGAGUUCUACAGUCCGACGAUCUUGUUCCUUUUGUGGGCAAUCACUAAAAAUGAUCACUAACAGCACCAACAAAGCAAUAAUAGUAGUAGUAGUAGUUAGCAGCAGCAGUAGUAGUCAUGCUAAUUAUAUAAUAUUUUUAAUCAACAGAGGAUUGAGCAUCA"}, "B13": {"name": "chr1:111117940:111118053:-|3pUTR|ENSG00000156171|unk|FALSE|unique (ssRNA)", "RNA": "GGGAGUUCUACAGUCCGACGAUCAGGCUGACAGUAACACUGAUGAAUGCUGAUAAUCAGGAAACAUGAAAGAAGCCAUUUGAUAGAUUAUUCUAAAGGAUAUCAUCAAGAAGACUAUUAAAAACACCUAUGCCUAUACUUUUUCAACAGAGGAUUGAGCAUCA"}, "B14": {"name": "ENSG00000198589:be:win_5801|CDS|ENSG00000198589|bound_else_gene|NA|bound_elsewhere_windowed (ssRNA)", "RNA": "GGGAGUUCUACAGUCCGACGAUCUGUGUGAUCAUUUGAUAAGAGCAGCAAAAUAUCGUGACCACGUGACAGCAACUCAACUAAUCCAGAAAAUUAUCAACAUUCUCACAGACAAGCAUGGAGCCUGGGGAAAUUCUGCAGUGACAACAGAGGAUUGAGCAUCA"}},
  "note": "Some of the results follow.",
  "data": [
    {"biological_target": "MSI1 full-length (mouse, UniProt Q61474 1-362)", "sequence (Q61474 whole entry)": "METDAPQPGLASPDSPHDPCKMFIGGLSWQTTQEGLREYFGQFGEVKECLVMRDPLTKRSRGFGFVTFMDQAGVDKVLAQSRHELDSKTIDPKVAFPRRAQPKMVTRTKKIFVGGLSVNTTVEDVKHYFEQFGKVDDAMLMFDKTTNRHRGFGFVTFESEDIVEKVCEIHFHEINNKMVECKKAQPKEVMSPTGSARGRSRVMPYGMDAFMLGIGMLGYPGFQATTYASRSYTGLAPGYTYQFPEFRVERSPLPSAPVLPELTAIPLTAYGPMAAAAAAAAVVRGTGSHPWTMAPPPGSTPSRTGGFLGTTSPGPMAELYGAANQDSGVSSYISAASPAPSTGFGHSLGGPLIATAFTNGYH", "test": "nsRBNS (natural sequence RNA bind-n-seq); RBNS binding buffer (assumed for nsRBNS): 25 mM Tris pH 7.5, 150 mM KCl, 3 mM MgCl2, 0.01% Triton X-100, 500 ug/ml BSA, 20 U/ml SUPERase-In, 4 C; UNK is unkempt and MSI1 is Musashi-1; names of the RNAs are library labels; protein concentration not given here; high values mean tight binding", "units": {"binding signal": "enrichment R"}, "values": [
      {"binder": "B1", "binding signal": 0.169},
      {"binder": "B2", "binding signal": 0.3},
      {"binder": "B3", "binding signal": 1.15},
      {"binder": "B4", "binding signal": 0.59},
      {"binder": "B5", "binding signal": 0.346},
      {"binder": "B6", "binding signal": 0.651},
      {"binder": "B7", "binding signal": 0.329},
      {"binder": "B8", "binding signal": 0.303},
      {"binder": "B9", "binding signal": 0.343},
      {"binder": "B10", "binding signal": 1.79},
      {"binder": "B11", "binding signal": 6.82},
      {"binder": "B12", "binding signal": 83.7},
      {"binder": "B13", "binding signal": 0.423},
      {"binder": "B14", "binding signal": 0.371}
    ]}
  ]
}
